Source: PubChem BioAssay AID686978 (National Center for Advancing Translational Sciences (NCATS), 2013)
Out of some 420,000 compounds screened, about 64,000 (15%) were called active. Inconclusive means that the source gave no clear call. Such entries were picked first, then a sample of the others. Calls come from the whole dose curve; as a rule, active = well fitted inhibition curve with a large enough effect; inconclusive = small, poorly fitted or top-dose-only effect; inactive = flat fitted curve, though single readings scatter. Potencies of inconclusive entries are left out as doubtful fits.

Assay: qHTS for Inhibitors of human tyrosyl-DNA phosphodiesterase 1 (TDP1): qHTS in cells in absence of CPT; note: nearly all actives have a fitted effect of over 55% in size
Settings: DT40 Tdp1-/- hTDP1 cells, no CPT, ATP luminescence, 48 h; activity change, negative = growth inhibition: at 46.2 µM (top of the series) unless noted
Outline: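 A cellular qHTS used chicken DT40 cells lacking endogenous Tdp1 but carrying stably transfected human TDP1. Compounds were applied without camptothecin, and cell growth kinetics were judged by ATP-dependent luminescence after ≥48 hr.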
% is set by controls: 0 for no effect and ±100 for the full control effect; potency is the fitted concentration of half-maximal effect; tags give direction and shape of the fitted curve.

SMILES | Potency | activity change, negative = growth inhibition
CC(=O)Nc1ccc(/C=C/c2ccnc3ccccc23)cc1 | active: 11.2 µM | 
CCOc1ccc(NC(=O)CN(C)C(=O)c2cc(-c3cccs3)nn2-c2ccccc2)cc1OCC | inconclusive [inhibitor, single point] | 
COc1ccc(C2N=C(c3ccccc3)NO2)cc1OC (configuration not stated) | inconclusive [inhibitor, single point] | 
COc1ccc(N(C)C(=O)c2onc3c2CCCC3)cc1 |  | inactive: -7.03%
CC(C)c1nc(SCc2c(F)cccc2Cl)c2c(=O)n(C)c(=O)n(C)c2n1 | inconclusive [inhibitor, single point] | 
CCCCCCCCN1C(=O)[C@H](CC(=O)NCC23CC4CC(CC(C4)C2)C3)C[C@@]2(C(=O)OCC)CCCC=C12 | active: 18.4 µM | 
N/C(=N\OC(=O)c1ccccc1[N+](=O)[O-])c1ccccn1 | inconclusive [inhibitor, single point] | 
COc1ccc(CNC(=O)c2[nH]c(C(F)(F)F)nc2-c2ccccc2)cc1 | inconclusive [inhibitor, single point] | 
NC(=O)C1(N2CCCCC2)CCN(C(=S)NC2CCCC2)CC1 | inconclusive [inhibitor, full curve] | 
Cc1cccc(C(=O)OCC(=O)N2CCCC2=O)c1O |  | inactive: 11.7%
CSc1ccccc1NC(=O)c1ccc(C)o1 |  | inactive: -10.5%
C(=C\c1ccccc1)/CN1CCN(C(c2ccccc2)c2nnnn2C2CCCC2)CC1 (configuration not stated) | active: 23.1 µM | 
CCN1C(C(=O)c2ccccc2)=C(Nc2ccccc2C)c2ccccc2S1(=O)=O | inconclusive [inhibitor, single point] | 
COc1ccc(C=CC(O)CCN2CCC3CCC(C3)C2)cc1 (configuration not stated) |  | inactive: -11.8%
CC1CCN(C(=O)COC(=O)c2ccc3c(c2)C(=O)N(Cc2ccco2)C3=O)CC1 |  | inactive: -20.7%
O=C(Nc1ccccc1Cl)NC1(C(=O)N2CCOCC2)CCCCC1 |  | inactive: -7.24%
CCCCn1c(N)c(N(CC(C)C)C(=O)C(C)SCc2nc3sc(C)c(C)c3c(=O)[nH]2)c(=O)[nH]c1=O (configuration not stated) | inconclusive [inhibitor, single point] | 
CCOC(=O)C(c1ccccc1)N1CCN(c2ccc(OC)cc2)CC1 (configuration not stated) | inconclusive [inhibitor, single point] | 
COc1ccc(NC(=O)CSc2nc(=O)n(CCN3CCOCC3)c3c2CCC3)cc1 |  | inactive: 9.07%
Cc1cc2c(cc1C)-c1nnnn1C(N1CCCCC1)C(=O)N2 (configuration not stated) | active: 9.2 µM | 
CCN1CCN(C2=C(NS(=O)(=O)c3ccc(C)cc3)C(=O)c3ccccc3C2=O)CC1 | active: 20.6 µM | 
CC(OC(=O)/C=C/c1ccc2ccccc2n1)C(=O)N(C)c1ccccc1 (configuration not stated) | inconclusive [inhibitor, single point] | 
CCOC(=O)c1c(C)[nH]c(C(=O)COC(=O)c2cnccn2)c1C |  | inactive: 16.1%
Cc1cccc2sc(=S)[nH]c12 | inconclusive [inhibitor, single point] | 

SMILES | Potency | activity change, negative = growth inhibition
COc1ccc(NC(=O)CN2CCCN(Cc3ccc(Cl)cc3)S2(=O)=O)cc1Cl | active: 10.3 µM | 
CCCNc1nc2c(c(=O)[nH]c(=O)n2C)n1CCOc1ccccc1 |  | inactive: -29.9%
O=C(OCC#CCSc1nnc(-c2ccncc2)o1)c1sc2ccccc2c1Cl | inconclusive [inhibitor, single point] | 
CC(C)(C)n1nnnc1C(c1cccnc1)N1CCN(c2ccccn2)CC1 (configuration not stated) |  | inactive: -18.6%
CCc1cc(=O)oc2c3c(cc(OCC(=O)NCc4ccccn4)c12)OC(C)(C)CC3 | inconclusive [inhibitor, single point] | 
O=C(CC(c1ccccc1)c1ccccc1O)NCCN1CCOCC1 (configuration not stated) |  | inactive: 4.07%
O=c1[nH]c(-c2ccccn2)nc2ccccc12 | active: 16.4 µM | 
CCn1c(CSc2ncccn2)nnc1SCC(=O)N1CCc2ccccc21 | inconclusive [inhibitor, single point] | 
CCc1c(C)nc(N)nc1Cl |  | inactive: -10.7%
CCN1c2ccccc2-c2nc(SCC(=O)NCc3ccc(C)cc3)ncc2S1(=O)=O | inconclusive [inhibitor, single point] | 
Cc1c(C(=O)c2ccc3c(c2)OCO3)ccc2c1OCO2 | inconclusive [inhibitor, single point] | 
COc1ccc(CNC(=O)OC23CN(C(=O)OC(C)C)N(C(=O)OC(C)C)CC2(O)CN(S(=O)(=O)c2ccc(C)cc2)C3)cc1OC (configuration not stated) | inconclusive [inhibitor, single point] | 
COc1cccc(OC)c1C(=O)Nc1cccc(-c2ccc(N3CCOCC3)nn2)c1 | inconclusive [inhibitor, partial curve, poor fit] | 
C[C@H]1CN([C@@H](C)CO)C(=O)c2cc(-c3cccc(F)c3)cnc2O[C@H]1CN(C)C(=O)c1cnccn1 |  | inactive: -12.4%
CC(=O)c1cn(CC(=O)Nc2ccc(C)cc2C)c2ccccc12 | active: 5.8 µM | 
C#Cc1ccc(NC(=O)C2(C)CCN2C(=O)Cc2ccc(-c3ccccc3)cc2)cc1 (configuration not stated) | active: 20.6 µM | 
Cc1nc2cc(N)ccc2n1-c1ccccc1 | inconclusive [inhibitor, single point] | 
C[C@H](CO)N1C[C@H](C)[C@H](CN(C)Cc2cccc(F)c2)Oc2ncc(Br)cc2C1=O |  | inactive: -11.9%
CC(C)Oc1ccccc1-c1cc(C(=O)N/N=C/c2cccnc2)c2ccccc2n1 | inconclusive [inhibitor, full curve] | 
CCOc1ccc(N=Nc2cc(C(C)C)ccc2O)cc1 | inconclusive [inhibitor, single point] | 
Cc1ccc(S(=O)(=O)Nc2nc3ccccc3nc2NCc2ccco2)cc1C | inconclusive [inhibitor, single point] | 
CCC(=O)c1ccc(OCC(=O)Nc2cccc(S(=O)(=O)N3CCCCCC3)c2)cc1 | active: 5.17 µM | 
CN(c1ccc(C(=O)NCc2cccnc2)cc1)S(C)(=O)=O | inconclusive [inhibitor, single point] | 
